We go through 90 molecules from PubChem BioAssay AID360 (National Center for Advancing Translational Sciences (NCATS), 2006).

Out of some 48,000 compounds screened, about 550 (1.1%) were called active. Roughly 4% stayed inconclusive and do not appear here. Cut-off read from the data, not from the text of the source: active = potency below about 15 µM; inconclusive = mostly about 16 µM to 33 µM; inactive = weaker than that. The list shows a part of the results.
Potency is the fitted concentration of half-maximal effect.

The target in the assay is Lysosomal acid glucosylceramidase (Homo sapiens) (UniProt P04062). Put plainly: Glucocerebrosidase.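 Note: the screen sought inhibitors.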 Particulars: purified enzyme, resorufin glucoside fluorescence (screen aimed at inhibitors), 20 min. The procedure, abridged: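 Normal human glucocerebrosidase (0.2 nM final) was assayed with resorufin β-D-glucopyranoside (30 uM final) in 50mM citric acid/KH2PO4, 10mM sodium taurocholate, 0.01% tween-20, pH 5.9. Compounds were titrated; fluorescence (Ex 548, Em 600) read after 20 min at RT.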
Sequence of UniProt P04062 (P04062 whole entry, looked up): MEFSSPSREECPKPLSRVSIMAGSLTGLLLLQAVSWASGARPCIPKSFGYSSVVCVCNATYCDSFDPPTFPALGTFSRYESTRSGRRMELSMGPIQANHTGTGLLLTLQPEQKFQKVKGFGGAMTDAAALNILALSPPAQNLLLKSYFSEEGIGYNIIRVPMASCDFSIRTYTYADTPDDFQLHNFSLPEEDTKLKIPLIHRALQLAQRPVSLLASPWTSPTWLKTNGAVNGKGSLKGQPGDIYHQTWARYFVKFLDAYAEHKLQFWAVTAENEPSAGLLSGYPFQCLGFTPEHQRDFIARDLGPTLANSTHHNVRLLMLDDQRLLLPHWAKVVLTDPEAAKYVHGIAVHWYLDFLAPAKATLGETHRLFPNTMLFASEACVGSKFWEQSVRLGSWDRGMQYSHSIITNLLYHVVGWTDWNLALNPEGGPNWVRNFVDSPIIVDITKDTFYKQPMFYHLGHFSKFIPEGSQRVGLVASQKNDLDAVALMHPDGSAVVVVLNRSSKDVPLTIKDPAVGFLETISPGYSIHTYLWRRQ
As for `COCCC(=O)NC12CC3CC(CC(C3)C1)C2`, the Potency is inactive: > 76.9 µM.
Next, `Cc1nn(-c2ccccc2)c(CC(C)(C)C(=O)O)c1C(=O)O`: inactive: > 76.9 µM; `O=C(CCN1CCCCCC1)Nc1ccc(F)cc1`: inactive: > 76.9 µM; `O=C(NCc1ccccc1)c1noc2c1CCCCC2`: inactive: > 76.9 µM.
Under `COc1ccc(N2CCN(Cc3nc4c(c(=O)[nH]c(=O)n4C)n3CCCc3ccccc3)CC2)cc1` stands inactive: > 76.9 µM.
Under `CCOc1ccc2nc(NC(=O)C(NS(=O)(=O)c3cccs3)C(C)C)sc2c1` (stereo not given) stands inactive: > 76.9 µM; under `O=C(O)c1cccc(S(=O)(=O)Nc2ccc3oc(=O)sc3c2)c1`, inactive: > 76.9 µM; under `COc1ccc(C2CC(c3cc(Br)ccc3F)n3nnnc3N2)cc1` (stereo not given), inactive: > 76.9 µM.
As for `COC(=O)c1oc2nc(C)cc(C)c2c1N`, the Potency is inactive: > 76.9 µM.
Under `CCn1c(COc2ccccc2C)nnc1SCC(=O)OC` stands inactive: > 76.9 µM; under `CCC(=O)N1CCc2cc(Br)cc(S(=O)(=O)C3(C(=O)OC)CC3)c21`, inactive: > 76.9 µM.
Under `CC(C)(C)n1ncc2c(=O)n(CC(=O)NCc3ccccc3Cl)cnc21` stands inactive: > 76.9 µM.
Next, `Cc1nnc(SCC(=O)N2CCC(c3noc4ccc(F)cc34)CC2)s1`: inactive: > 76.9 µM; `CCOc1cccc(/C(O)=C2/C(=O)C(=O)N(CCOC)C2c2ccncc2)c1` (stereo not given): inactive: > 76.9 µM.
`O=C(Cn1nnc(-c2ccccc2NC(=O)c2ccccc2F)n1)NCc1ccco1`: the Potency is inactive: > 76.9 µM.
Under `Cc1cc(C(=O)COc2ccc3ccc(=O)oc3c2)c(C)n1Cc1cccs1` stands inactive: > 76.9 µM; under `COc1ccc(C2C(C(=O)N3CCCC3)CC(=O)N2c2ccc(OC)cc2)cc1` (stereo not given), inactive: > 76.9 µM.
Under `COC(=O)C1CCN(S(=O)(=O)Cc2ccccc2)CC1` stands inactive: > 76.9 µM; under `Cc1cc(NC(=O)CSc2nnc(C3COc4ccccc4O3)o2)no1` (stereo not given), “inactive”.
Next, `COc1ccc(C2/C(=C(/O)c3ccccc3)C(=O)C(=O)N2CCN2CCOCC2)c(OC)c1` (stereo not given): inactive: > 76.9 µM.
For `Cc1ccccc1OCCC(=O)Nc1c(C)n(C)n(-c2ccccc2)c1=O`, the Potency is inactive: > 76.9 µM.
Next, `CN(Cc1ccccc1)C1CC(=O)N(c2ccc(C(=O)O)cc2)C1=O` (stereo not given): inactive: > 76.9 µM; `COC(=O)CSc1nc2c(c(=O)n(C)c(=O)n2C)n1CCCc1ccccc1`: inactive: > 76.9 µM; `COC(=O)c1ccccc1NC(=O)CN(C)S(=O)(=O)c1cc(C)ccc1OC`: inactive: > 76.9 µM.
As for `O=C(NCc1ccc2[nH]c3c(c2c1)CCCC3)N1CCOCC1`, the Potency is inactive: > 76.9 µM.
Under `COc1ccccc1CNC(=O)C(NC(=O)C1CCCCC1)C(C)C` (stereo not given) stands inactive: > 76.9 µM; under `COc1ncnc(OC)c1NC(=O)c1ccc(F)cc1`, inactive: > 76.9 µM.
Under `Cc1nc2nc(C)c(CCC(=O)N3CCOCC3)c(C)n2n1` stands inactive: > 76.9 µM.
On to `COc1ccc(-c2noc(CCC(=O)Nc3cccc(C)c3)n2)cc1`, for which the Potency was inactive: > 76.9 µM.
Next, `COc1ccccc1CN1C(=O)CN(C2CCCC2)C(=O)C1c1ccc(F)cc1` (stereo not given): inactive: > 76.9 µM; `CCn1c(CSc2nc(C)cc(C)n2)nnc1SCC(=O)Nc1nc(-c2ccccc2)cs1`: inactive: > 76.9 µM.
With `CCn1c(N)c(C(=O)Nc2ccccc2C(=O)OC)sc1=S`, the Potency is inactive: > 76.9 µM.
As for `COc1ccc(OC)c(S(=O)(=O)N(C)CC(=O)N2CCN(c3ccccc3F)CC2)c1`, the Potency was inactive: > 76.9 µM.
Under `CCCn1c(C)cc(C(=O)CSc2nnc3n(CCC)c(=O)c4ccccc4n23)c1C` stands inactive: > 76.9 µM; under `O=C(OCC(=O)N1CCCc2ccccc21)C1CCN(S(=O)(=O)c2cccs2)CC1`, inactive: > 76.9 µM.
With `CCCCCCN1Cc2ccccc2C1`, the Potency was inactive: > 76.9 µM.
Next, `COc1ccc(CCNC(=O)C2CCN(S(=O)(=O)c3cnc[nH]3)CC2)cc1OC`: inactive: > 76.9 µM; `CCN(CC)CCNC(=O)Cc1c(C(=O)O)n(C)c2ccccc12`: inactive: > 76.9 µM.
Under `O=C(Oc1ccc2c(c1)OCO2)c1cccs1` stands inactive: > 76.9 µM; under `CC(C)(C)c1ccc(NC(=O)CC2(C(F)(F)F)OCCO2)cc1`, inactive: > 76.9 µM; under `O=c1cc(N2CCc3ccccc3C2)[nH]c(=O)n1-c1ccc(Cl)cc1`, inactive: > 76.9 µM.
Under `COc1cccc2[nH]c3c(N4CCCC(C)C4)ncnc3c12` (stereo not given) stands inactive: > 76.9 µM; under `COC(=O)c1cc(Br)c(=O)n(CCN2CCCCC2)c1`, inactive: > 76.9 µM.
Take `CCc1nc2ccccc2n(CCOCCOCCn2c(=O)c(CC)nc3ccccc32)c1=O`: the Potency is inactive: > 76.9 µM.
Next, `Oc1[nH]c2ccccc2c1C1=NCCCC1`: inactive: > 76.9 µM.
Next, `C=CCN1CC(c2nc3ccccc3n2Cc2ccccc2)CC1=O` (stereo not given): inactive: > 76.9 µM.
Next, `CN(C)C(=O)Cn1cnc2c(cnn2-c2ccccc2Cl)c1=O`: inactive: > 76.9 µM; `COc1ccc(C2C(C(=O)Nc3ccccc3)=C(C)Nc3nc(CCCO)nn32)cc1` (stereo not given): inactive: > 76.9 µM.
Regarding `CCCCc1ccc(CC(=O)O)cc1`, the Potency was inactive: > 76.9 µM.
Under `CN(C)c1nc(N)nc(CSc2n[nH]c(-c3ccccc3)n2)n1` stands inactive: > 76.9 µM.
Turning to `N#Cc1nc(COc2ccc(Cl)cc2)oc1N1CCCC1`, the Potency is inactive: > 76.9 µM.
Next, `O=C(c1cnc(N2CCN(c3ncccn3)CC2)c2ccccc12)N1CCN(c2ncccn2)CC1`: inactive: > 76.9 µM.
Consider `O=C(c1ccc(F)cc1)C1CCN(C(=O)NCc2ccccc2)CC1`, for which the Potency is inactive: > 76.9 µM.
Next, `COc1cc(C)ccc1NC(=O)c1ccc(S(=O)(=O)N2CCOCC2)cc1`: inactive: > 76.9 µM; `O=C(COc1ccc(-c2nnco2)cc1)N1CCN(S(=O)(=O)c2ccccc2)CC1`: inactive: > 76.9 µM; `CCOc1ccc(C(=O)Nc2c3c(nn2-c2ccc(F)cc2)CS(=O)C3)cc1` (stereo not given): inactive: > 76.9 µM.
Under `COCC(=O)Nc1nnc(-c2cccs2)s1` stands inactive: > 76.9 µM; under `CN(Cc1cccs1)C(=O)CCc1ccc(S(=O)(=O)N2CCOCC2)cc1`, inactive: > 76.9 µM.
Consider `Cc1ccccc1Cn1c(-c2cncs2)nc2ccccc21`, for which the Potency was inactive: > 76.9 µM.
Under `COC(=O)C1=C(N)N(c2ccc(F)cc2)C2=C(C(=O)CCC2)C1c1ccc2c(c1)OCO2` (stereo not given) stands inactive: > 76.9 µM; under `CC1Cc2ccccc2N1S(=O)(=O)c1ccc2c(c1)n(C)c(=O)c(=O)n2C` (stereo not given), inactive: > 76.9 µM; under `Cn1c(SCC(=O)N2CCCC2)nc2ccccc2c1=O`, inactive: > 76.9 µM.
Next, `Cc1oc2nc(SCCCC(=O)NCCO)nc(N)c2c1C`: inactive: > 76.9 µM; `O=C(CCC(=O)N1CCc2ccccc2C1)N1CCN(S(=O)(=O)c2ccccc2)CC1`: inactive: > 76.9 µM.
Under `CC(CC(=O)NCc1ccccc1)C1CCCO1` (stereo not given) stands inactive: > 76.9 µM; under `CCN(CCCNC(=O)CCNC(=O)Cn1ccc2ccccc2c1=O)c1ccccc1`, inactive: > 76.9 µM.
Regarding `CCC(=O)N1CCc2cc(S(=O)(=O)NC(C(=O)N3CCc4ccccc4C3)C(C)C)ccc21` (stereo not given), the Potency was inactive: > 76.9 µM.
Under `O=C(CN1CCN(c2cccc(Cl)c2)CC1)N1CCCC1` stands inactive: > 76.9 µM; under `CCOc1ccccc1C(=O)NCC(=O)OCC(=O)N1C(C)CCCC1C` (stereo not given), inactive: > 76.9 µM.
Under `Cc1cc2n(n1)C(c1sccc1C)Nc1c(C)cccc1-2` (stereo not given) stands inactive: > 76.9 µM; under `COc1ccc(NC(=O)N2CCn3c2nc2ccccc23)cc1`, inactive: > 76.9 µM.
Next, `Cn1nc(CC(=O)Nc2ccc(N3CCN(C(=O)OC(C)(C)C)CC3)cc2)c2ccccc2c1=O`: inactive: > 76.9 µM.
Take `CC1CCCC(C)N1C(=O)COC(=O)c1ccc[nH]c1=O` (stereo not given): the Potency is inactive: > 76.9 µM.
Next, `CCCCOC(=O)NCN1C(=O)C2C3C=CC(C3)C2C1=O` (stereo not given): inactive: > 76.9 µM; `CCn1c(COc2ccccc2C)nnc1SCC(=O)N1CCCCC1`: inactive: > 76.9 µM; `O=C(NCCCN1CCCC1=O)c1cccnc1`: inactive: > 76.9 µM.
Turning to `CCOC(=O)c1cc2c(=O)n3cccc(C)c3nc2n(CCOC)c1=NC(=O)c1ccncc1`, the Potency was inactive: > 76.9 µM.
On to `COc1ccc(C(=O)Nc2ccc(S(=O)(=O)Nc3onc(C)c3C)cc2)cc1`, for which the Potency result is “inactive”.
Under `O=C(NC1(C(F)(F)F)N=C2SCCN2C1=O)C1CCCCC1` (stereo not given) stands inactive: > 76.9 µM.
For `O=S(=O)(NC1CC1)c1ccc(S(=O)(=O)N2CCCC3(CCCCC3)C2)cc1`, the Potency was inactive: > 76.9 µM.
Under `O=C1OC(Nc2nccs2)c2ccccc21` (stereo not given) stands inactive: > 76.9 µM; under `COc1cccc(Oc2coc3c(CN4CCOCC4)c(O)ccc3c2=O)c1`, inactive: > 76.9 µM; under `CCN1CCN(CCNC(=O)c2ccc(CS(=O)(=O)c3ccccc3C)o2)CC1`, inactive: > 76.9 µM.
Under `Cn1c(=O)[nH]c(=O)c2c1nc(Br)n2CCCO` stands inactive: > 76.9 µM; under `CCN(CC)CCNC(=O)CCn1c(=S)[nH]c2cc3c(cc2c1=O)OCO3`, inactive: > 76.9 µM; under `Cc1cc(C)c(C)c(S(=O)(=O)NCc2cccnc2)c1C`, inactive: > 76.9 µM.
In the case of `O=C(NCC(=O)N1CCCC1)c1cccs1`, the Potency was inactive: > 76.9 µM.
Under `Cc1onc(-c2ccccc2)c1C(=O)n1nnc2ccccc21` stands inactive: > 76.9 µM; under `Cc1cc(NC(=O)Cn2nc(C(F)(F)F)c3c2CCC3)n(-c2ccccc2)n1`, inactive: > 76.9 µM; under `CC1(C)Cc2noc(N)c2C(C)(C)N1OC(=O)c1scc2c1OCCO2`, inactive: > 76.9 µM.
